Results from PMC5908291, “The JmjN domain as a dimerization interface and a targeted inhibitor of KDM4 demethylase activity” (Oncotarget, 2018).
No constants are given. Whether binding was seen depends on the method and setting. For part of these data: Binding seen in cells or lysates may run through a third protein. Some results given as binding are weak or reduced against the parent protein; the word gives no strength. Where a sequence is shown, tags or fusion partners need not be part of it. Each block holds one binder with its values, some of them ahead of it.

Protein sequences, listed by entry. Tags and fused reporters are not part of them.
UniProt O94953: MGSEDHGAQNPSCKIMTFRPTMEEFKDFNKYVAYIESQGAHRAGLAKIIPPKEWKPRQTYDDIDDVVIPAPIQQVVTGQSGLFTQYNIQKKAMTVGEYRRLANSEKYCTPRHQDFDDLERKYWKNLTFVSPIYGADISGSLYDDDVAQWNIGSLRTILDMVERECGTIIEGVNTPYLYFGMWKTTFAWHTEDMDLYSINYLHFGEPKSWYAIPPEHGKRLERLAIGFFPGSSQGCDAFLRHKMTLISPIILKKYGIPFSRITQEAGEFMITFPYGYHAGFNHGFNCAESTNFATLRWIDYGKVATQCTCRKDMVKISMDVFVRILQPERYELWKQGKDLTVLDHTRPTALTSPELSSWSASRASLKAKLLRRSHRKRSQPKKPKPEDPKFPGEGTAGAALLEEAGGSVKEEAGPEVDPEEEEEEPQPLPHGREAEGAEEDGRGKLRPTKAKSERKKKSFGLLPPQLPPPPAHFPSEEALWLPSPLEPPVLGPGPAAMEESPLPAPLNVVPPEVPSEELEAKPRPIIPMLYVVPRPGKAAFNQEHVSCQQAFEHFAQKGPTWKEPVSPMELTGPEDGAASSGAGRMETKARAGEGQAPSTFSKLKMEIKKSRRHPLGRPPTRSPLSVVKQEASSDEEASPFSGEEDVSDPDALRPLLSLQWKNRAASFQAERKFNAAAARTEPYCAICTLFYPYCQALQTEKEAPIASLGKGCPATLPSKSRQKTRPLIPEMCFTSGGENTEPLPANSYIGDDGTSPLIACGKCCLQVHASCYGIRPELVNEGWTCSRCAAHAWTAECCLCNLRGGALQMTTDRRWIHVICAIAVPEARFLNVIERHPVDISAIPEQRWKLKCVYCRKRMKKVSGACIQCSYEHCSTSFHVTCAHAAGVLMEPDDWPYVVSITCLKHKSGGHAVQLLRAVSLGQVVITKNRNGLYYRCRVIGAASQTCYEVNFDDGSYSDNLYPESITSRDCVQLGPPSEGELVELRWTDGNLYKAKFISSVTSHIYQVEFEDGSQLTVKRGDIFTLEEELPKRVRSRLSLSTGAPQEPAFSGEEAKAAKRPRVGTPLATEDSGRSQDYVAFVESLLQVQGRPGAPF

Columns and labels:
[1] = target: isolated JmjN domain of KDM4C with a C-terminal YN or YC tag (human) (UniProt Q9H3R0); assay: split reporter; BiFC (Venus YN + YC), immunofluorescence microscopy of fixed, permeabilised HEK293 cells 20 h after co-transfection; transfected cells marked by anti-YFP, anti-KDM4C or anti-HA
[2] = target: T1, KDM4A with a C-terminal YN or YC tag (human) (UniProt O75164); assay: as above
T1 sequence: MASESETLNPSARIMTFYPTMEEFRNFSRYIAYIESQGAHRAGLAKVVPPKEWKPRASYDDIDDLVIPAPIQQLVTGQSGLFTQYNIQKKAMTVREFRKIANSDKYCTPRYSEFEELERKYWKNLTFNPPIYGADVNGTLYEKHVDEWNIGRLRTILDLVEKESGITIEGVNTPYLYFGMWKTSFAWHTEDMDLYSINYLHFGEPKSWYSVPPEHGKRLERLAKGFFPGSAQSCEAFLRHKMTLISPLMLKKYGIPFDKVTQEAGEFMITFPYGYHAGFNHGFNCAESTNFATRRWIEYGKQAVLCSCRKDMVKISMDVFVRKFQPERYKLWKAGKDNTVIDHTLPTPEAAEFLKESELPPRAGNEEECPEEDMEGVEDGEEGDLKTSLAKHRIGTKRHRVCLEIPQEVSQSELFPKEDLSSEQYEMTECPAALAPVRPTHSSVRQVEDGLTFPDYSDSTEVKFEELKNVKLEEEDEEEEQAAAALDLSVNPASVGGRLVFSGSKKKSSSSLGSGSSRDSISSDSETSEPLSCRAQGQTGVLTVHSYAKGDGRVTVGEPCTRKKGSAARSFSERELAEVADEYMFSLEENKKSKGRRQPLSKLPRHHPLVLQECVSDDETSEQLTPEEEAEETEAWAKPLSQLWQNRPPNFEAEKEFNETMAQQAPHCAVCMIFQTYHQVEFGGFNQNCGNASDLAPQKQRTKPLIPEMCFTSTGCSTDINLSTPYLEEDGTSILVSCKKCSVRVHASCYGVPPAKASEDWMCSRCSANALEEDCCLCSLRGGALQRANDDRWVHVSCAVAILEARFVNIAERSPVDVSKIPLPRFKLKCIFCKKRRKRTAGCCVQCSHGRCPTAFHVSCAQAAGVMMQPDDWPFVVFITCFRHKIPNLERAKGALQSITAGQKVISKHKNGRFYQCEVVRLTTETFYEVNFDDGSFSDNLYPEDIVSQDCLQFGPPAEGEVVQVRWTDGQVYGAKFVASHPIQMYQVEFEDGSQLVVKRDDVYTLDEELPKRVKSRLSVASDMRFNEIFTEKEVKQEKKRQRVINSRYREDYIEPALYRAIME

[3] = target: T2, isolated JmjC domain of KDM4C with a C-terminal YN or YC tag (human) (UniProt Q9H3R0); assay: as above
T2 sequence: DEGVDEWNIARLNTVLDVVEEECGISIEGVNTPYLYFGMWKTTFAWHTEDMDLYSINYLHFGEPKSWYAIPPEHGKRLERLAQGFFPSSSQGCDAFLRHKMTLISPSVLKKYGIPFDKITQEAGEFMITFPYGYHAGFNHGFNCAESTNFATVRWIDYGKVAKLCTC

[4] = target: KDM4B with a C-terminal YN or YC tag (human) (UniProt O94953); assay: as above
[5] = target: T3, KDM4C with a C-terminal YN or YC tag (human, UniProt Q9H3R0 1-1056); assay: as above
T3 construct: Lysine demethylase KDM4C (GASC1), human, ORF amplified from pCMV-HA-GASC1; 1056 aa as printed; BiFC pair: one molecule stands for the YN and the YC conjugate; also called KDM4C-YN; KDM4C-YC; source: HEK293, transiently transfected, in cells; not shown: YN (Venus YFP residues 1-172) on one copy or YC (Venus YFP residues 155-238) on the other, C-terminal, kept
T3 sequence (looked up): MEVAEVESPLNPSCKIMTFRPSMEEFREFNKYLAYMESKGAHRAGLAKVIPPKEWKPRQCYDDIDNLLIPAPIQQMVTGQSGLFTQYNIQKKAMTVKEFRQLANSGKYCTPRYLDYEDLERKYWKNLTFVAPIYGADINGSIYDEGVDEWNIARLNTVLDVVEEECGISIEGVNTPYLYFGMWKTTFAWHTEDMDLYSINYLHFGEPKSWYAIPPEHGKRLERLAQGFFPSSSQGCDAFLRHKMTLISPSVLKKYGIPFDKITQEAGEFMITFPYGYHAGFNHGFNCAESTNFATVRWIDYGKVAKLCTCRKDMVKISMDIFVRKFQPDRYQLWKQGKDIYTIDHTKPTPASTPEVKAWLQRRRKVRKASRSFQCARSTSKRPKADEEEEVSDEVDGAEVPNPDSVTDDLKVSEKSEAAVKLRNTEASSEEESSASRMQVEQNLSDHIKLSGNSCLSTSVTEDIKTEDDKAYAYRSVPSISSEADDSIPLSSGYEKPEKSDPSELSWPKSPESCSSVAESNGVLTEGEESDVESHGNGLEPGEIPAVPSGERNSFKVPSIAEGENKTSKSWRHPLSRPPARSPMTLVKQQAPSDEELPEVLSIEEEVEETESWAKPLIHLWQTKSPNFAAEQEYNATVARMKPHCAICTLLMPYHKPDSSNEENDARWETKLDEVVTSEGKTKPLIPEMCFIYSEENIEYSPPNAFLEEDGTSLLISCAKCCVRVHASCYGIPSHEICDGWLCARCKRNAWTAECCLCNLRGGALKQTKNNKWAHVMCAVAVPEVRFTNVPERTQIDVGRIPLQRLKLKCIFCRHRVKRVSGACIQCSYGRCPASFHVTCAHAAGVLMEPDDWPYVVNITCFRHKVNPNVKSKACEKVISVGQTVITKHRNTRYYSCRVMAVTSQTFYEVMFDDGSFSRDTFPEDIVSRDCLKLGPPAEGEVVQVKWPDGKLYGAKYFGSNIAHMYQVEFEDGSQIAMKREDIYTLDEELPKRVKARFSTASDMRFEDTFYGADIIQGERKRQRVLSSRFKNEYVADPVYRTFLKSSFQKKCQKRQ

[6] = target: isolated JmjN domain of KDM4C with a C-terminal YN or YC tag (human) (UniProt Q9H3R0); assay: split reporter; BiFC (Venus YN + YC), live cell confocal imaging of HEK293 cells 20 h after co-transfection, 37°C, 5% CO2
[7] = target: isolated JmjN domain of KDM4C with a C-terminal YN or YC tag (human) (UniProt Q9H3R0); assay: SDS-PAGE and Western blot (dimer band); total cell extracts (50 μg) of HEK293 cells transfected with YN- and YC-tagged domains, 12.5% SDS-PAGE, anti-YFP blot
[8] = target: T2, isolated JmjC domain of KDM4C with a C-terminal YN or YC tag (human); assay: split reporter; BiFC (Venus YN + YC), live cell confocal imaging of HEK293 cells 20 h after co-transfection, 37°C, 5% CO2
[9] = target: T2, isolated JmjC domain of KDM4C with a C-terminal YN or YC tag (human); assay: SDS-PAGE and Western blot (dimer band); total cell extracts (50 μg) of HEK293 cells transfected with YN- and YC-tagged domains, 12.5% SDS-PAGE, anti-YFP blot

binding [1]: binds | binding [2]: binds | binding [3]: no binding | binding [4]: binds | binding [5]: binds | binding [6]: binds | binding [7]: binds
B1: isolated JmjN domain of KDM4C with a C-terminal YN or YC tag (domain or fragment, UniProt Q9H3R0 1-58)
chain: MEVAEVESPLNPSCKIMTFRPSMEEFREFNKYLAYMESKGAHRAGLAKVIPPKEWKPR

binding [8]: no binding | binding [9]: no binding
B2: isolated JmjC domain of KDM4C with a C-terminal YN or YC tag (domain or fragment, UniProt Q9H3R0 144-310)
chain: T2 sequence
